Measurements reported in the supplement of paper PMC7826260.
This is one part of the list. Viral Rep nickase domains cut single-stranded DNA in vitro at 3 µM enzyme and 37 °C for 1 h; the strands have 90 letters, of which the middle is given. Uncut reads are compared with the no-enzyme pool on a log2 scale; uncut sequences lie near 0, cut ones below; no hit call is given. Reads are scaled to the total; where an enzyme cuts many sequences, the uncut ones exceed 0.

Experiments:
Assay in all cases: uncleaved DNA left, log2 of reads against the no-enzyme library (log2 ratio); higher = less cleavage (more negative = more Rep cleavage of the k-mer); sequences stand for … in CTCGTCCG…ACCGGAGA
[1] = test system: T1, Rep nickase domain of Muscovy duck circovirus
T1 sequence (residues 1-111, tag not shown): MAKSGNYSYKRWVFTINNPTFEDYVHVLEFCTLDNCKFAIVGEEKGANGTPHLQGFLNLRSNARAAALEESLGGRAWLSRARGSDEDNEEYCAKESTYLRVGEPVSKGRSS
Procedure: (§1)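 A pool of 90-nt single-stranded DNAs with seven random bases just before the constant AC of the nick site (name = the seven bases) was cut by 3 µM recombinant His6-SUMO-tagged Rep nickase domain (300 nM DNA, 50 mM HEPES pH 8.0, 50 mM NaCl, 1 mM MnCl2, 1 h, 37 °C, three replicates). Uncut DNA was amplified and sequenced.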

[2] = test system: T2, Rep nickase domain of banana bunchy top virus
T2 sequence (residues 1-94, tag not shown): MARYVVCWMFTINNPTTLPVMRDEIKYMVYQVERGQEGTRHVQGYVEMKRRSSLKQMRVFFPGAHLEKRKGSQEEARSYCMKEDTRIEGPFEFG
Procedure: as §1

[3] = test system: T3, Rep nickase domain of cabbage leaf curl virus
T3 sequence (residues 1-116, tag not shown): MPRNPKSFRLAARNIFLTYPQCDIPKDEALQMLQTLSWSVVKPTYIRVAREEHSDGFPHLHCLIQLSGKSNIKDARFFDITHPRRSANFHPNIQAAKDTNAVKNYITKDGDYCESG
Procedure: as §1

[4] = test system: T4, Rep nickase domain of chickpea chlorotic dwarf virus
T4 sequence (residues 1-124, tag not shown): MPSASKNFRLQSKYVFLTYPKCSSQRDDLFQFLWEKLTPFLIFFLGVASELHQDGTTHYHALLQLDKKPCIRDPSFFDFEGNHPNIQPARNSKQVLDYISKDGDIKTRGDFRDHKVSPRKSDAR
Procedure: as §1

[5] = test system: T5, Rep nickase domain of faba bean necrotic yellows virus
T5 sequence (residues 1-98, tag not shown): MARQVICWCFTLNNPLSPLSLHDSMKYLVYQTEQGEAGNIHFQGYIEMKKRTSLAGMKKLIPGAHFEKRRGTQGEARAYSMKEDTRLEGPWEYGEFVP
Procedure: as §1

[6] = test system: T6, Rep nickase domain of maize striate mosaic virus
T6 sequence (residues 1-117, tag not shown): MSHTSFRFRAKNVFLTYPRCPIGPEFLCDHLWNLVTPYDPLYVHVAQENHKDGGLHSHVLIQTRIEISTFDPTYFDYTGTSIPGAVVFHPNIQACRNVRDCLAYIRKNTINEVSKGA
Procedure: as §1

[7] = test system: T7, Rep nickase domain of porcine circovirus 2
T7 sequence (residues 2-116, tag not shown): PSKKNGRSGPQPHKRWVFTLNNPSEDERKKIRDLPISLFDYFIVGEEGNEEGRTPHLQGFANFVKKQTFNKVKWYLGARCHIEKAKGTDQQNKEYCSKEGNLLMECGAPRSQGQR
Procedure: as §1

[8] = test system: T8, Rep nickase domain of tomato golden mosaic virus
T8 sequence (residues 1-124, tag not shown): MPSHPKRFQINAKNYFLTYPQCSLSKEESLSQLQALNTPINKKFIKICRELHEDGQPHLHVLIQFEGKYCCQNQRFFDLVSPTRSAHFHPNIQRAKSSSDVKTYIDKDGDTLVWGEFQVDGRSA
Procedure: as §1

[9] = test system: T9, Rep nickase domain of tomato yellow leaf curl virus
T9 sequence (residues 1-136, tag not shown): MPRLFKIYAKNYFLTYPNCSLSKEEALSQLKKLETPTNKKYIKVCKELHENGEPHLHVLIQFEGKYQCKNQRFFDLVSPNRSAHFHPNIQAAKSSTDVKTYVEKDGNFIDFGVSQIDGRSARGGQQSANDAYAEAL
Procedure: as §1

[10] = test system: T10, Rep nickase domain of wheat dwarf virus
T10 sequence (residues 1-137, tag not shown): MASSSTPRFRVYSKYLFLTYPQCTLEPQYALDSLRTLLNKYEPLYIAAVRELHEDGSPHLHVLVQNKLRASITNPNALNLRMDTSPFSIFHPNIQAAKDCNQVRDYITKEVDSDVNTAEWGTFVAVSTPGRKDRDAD
Procedure: as §1

Sequence	uncleaved DNA left (log2) [1]	uncleaved DNA left (log2) [2]	uncleaved DNA left (log2) [3]	uncleaved DNA left (log2) [4]	uncleaved DNA left (log2) [5]	uncleaved DNA left (log2) [6]	uncleaved DNA left (log2) [7]	uncleaved DNA left (log2) [8]	uncleaved DNA left (log2) [9]	uncleaved DNA left (log2) [10]
CGGGCAC	-0.0541	-0.0676	0.646	1.56	-0.152	1.9	0.0452	-0.146	-0.2	-0.0427
TCTGACG	0.24	0.106	-0.588	-0.553	0.106	-1.14	0.25	-0.00871	-0.00333	0.0216
AGAGCAG	0.0057	-0.0322	-0.344	-0.0723	0.00257	-0.645	0.0653	0.0813	-0.0785	-0.0593
CTGCTTT	0.118	-0.101	-0.24	-1.92	0.1	-0.781	-0.339	-0.125	-0.0449	-0.0109
TACGCGC	0.0225	-0.0105	-0.757	-0.345	0.126	-0.698	-0.0202	-0.04	0.0564	-0.00652
GTCAAAG	0.0695	0.189	0.298	0.796	-0.0492	1.31	0.198	0.12	0.109	0.107
AAGAGGC	0.0404	0.0583	0.133	0.173	-0.0664	-0.569	0.164	0.0272	-0.0699	0.0763
ACTTGCG	-0.0866	-0.063	0.448	1.82	-0.028	2.19	-0.0349	-0.0794	-0.111	0.00931
TGGTTCC	-0.0833	0.0557	0.317	0.724	-0.0483	1.31	-0.0787	-0.056	0.101	0.112
GAACATT	-0.0447	0.165	0.741	1.6	-0.0412	2.1	0.0623	-0.174	0.0784	0.242
CTCGCAG	0.264	0.0622	-0.675	-0.613	0.109	-0.896	0.358	-0.0126	0.195	0.112
GGCAAGT	-0.00823	0.0109	0.497	1.25	0.0105	1.7	0.0641	-0.0377	0.0397	0.0551
TTTTCGG	0.0582	0.0266	0.514	1.47	-0.0376	2	0.0321	0.0826	-0.0609	0.0317
TCTTGCT	-0.172	-0.0491	-0.831	-1.15	0.03	-1.19	-0.975	-0.133	-0.0288	-0.057
AGGGGAT	0.102	0.0774	0.323	1.7	0.0909	1.94	0.249	0.151	-0.173	0.0855
TCAAGGG	-0.0719	-0.0349	0.00944	0.264	-0.109	-0.396	0.0597	-0.021	0.00816	-0.0255
CTCCTAA	-0.0467	-0.105	-0.118	-0.43	-0.0816	-0.615	-0.137	-0.0849	0.0212	0.028
GTTACGT	0.0461	0.132	0.342	0.713	0.0566	1.11	0.0863	0.122	0.09	0.169
ATACAAT	0.0043	0.0315	-0.169	-1.63	0.00454	-0.446	-0.0285	0.0137	-0.0159	-0.0275
ATCTGCT	-0.333	-0.134	-0.501	-0.745	0.0232	-0.818	-2.47	-0.0766	0.0412	-0.162
ATGCGTC	0.0121	-0.193	-0.853	-0.807	-0.0876	-1.12	0.037	-0.156	0.0148	-0.228
CTCGCAA	0.122	0.0423	-0.0607	-0.312	0.0291	-0.85	0.0969	0.0778	0.101	0.0205
CGTCGCG	0.0214	-0.0223	-0.611	0.0872	0.148	-0.652	0.171	-0.0693	0.0523	-0.0358
GCGACGT	0.0149	0.0416	0.174	0.887	-0.054	1.69	0.0646	0.136	-0.0365	0.0657
ATCGCAG	-0.0259	-0.0384	-0.77	-0.619	-0.0201	-1.1	0.0157	-0.184	-0.111	-0.12
GGTTTTC	-0.085	0.0952	0.301	0.953	0.0448	1.63	0.0625	0.025	0.0814	0.0959
GCATAGA	0.0398	0.045	-0.111	0.13	0.0456	-0.694	0.191	0.138	0.0443	0.00964
GGTCTTT	0.0385	0.02	0.483	0.978	-0.0945	1.87	-0.0572	-0.0599	0.0953	0.111
GACCCAG	0.0237	-0.00777	-0.391	-0.273	-0.0407	-0.698	-0.148	0.0703	-0.00437	-0.046
ACCCGTG	0.102	0.0231	-0.646	-0.187	-0.0931	-0.849	0.123	0.0535	-0.0144	-0.142
